# T1: soluble form of human B7-1 (human, UniProt P33681 35-242, limits assumed)
# T1 construct: also called soluble B7-1
# T1 sequence (looked up): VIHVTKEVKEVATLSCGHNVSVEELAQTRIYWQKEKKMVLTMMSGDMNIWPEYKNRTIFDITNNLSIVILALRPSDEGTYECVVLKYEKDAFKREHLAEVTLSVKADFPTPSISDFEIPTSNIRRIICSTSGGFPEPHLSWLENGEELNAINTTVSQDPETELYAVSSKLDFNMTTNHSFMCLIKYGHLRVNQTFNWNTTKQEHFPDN
# T2: soluble form of human B7-2 (human, UniProt P42081 24-247, limits assumed)
# T2 construct: also called soluble B7-2
# T2 sequence (looked up): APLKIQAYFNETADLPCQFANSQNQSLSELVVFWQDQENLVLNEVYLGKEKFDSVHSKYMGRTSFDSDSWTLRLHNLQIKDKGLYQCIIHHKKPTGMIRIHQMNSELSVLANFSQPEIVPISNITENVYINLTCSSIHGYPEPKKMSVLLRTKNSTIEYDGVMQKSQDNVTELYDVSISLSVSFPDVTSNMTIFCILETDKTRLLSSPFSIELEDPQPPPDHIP
# B1: murine B7-4 expressed on transfected cells (ligand)
# chain: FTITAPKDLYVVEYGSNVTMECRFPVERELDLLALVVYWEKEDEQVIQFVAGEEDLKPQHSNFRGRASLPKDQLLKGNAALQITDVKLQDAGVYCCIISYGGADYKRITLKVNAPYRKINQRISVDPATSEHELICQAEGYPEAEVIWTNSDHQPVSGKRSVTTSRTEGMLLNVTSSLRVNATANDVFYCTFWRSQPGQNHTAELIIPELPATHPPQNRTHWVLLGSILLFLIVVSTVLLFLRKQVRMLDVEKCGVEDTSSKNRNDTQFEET
# notes: also called mouse B7-4; mB7-4
# Key:
# [1] = target: T3, human B7-4M expressed on transfected COS or CHO cells (human, UniProt Q9NZQ7); assay: flow cytometry on CHO cells expressing human B7-4
# T3 construct: Full-length B7-4M cDNA expressed on COS or CHO cells; also called PD-L1
# T3 sequence (Q9NZQ7 19-290): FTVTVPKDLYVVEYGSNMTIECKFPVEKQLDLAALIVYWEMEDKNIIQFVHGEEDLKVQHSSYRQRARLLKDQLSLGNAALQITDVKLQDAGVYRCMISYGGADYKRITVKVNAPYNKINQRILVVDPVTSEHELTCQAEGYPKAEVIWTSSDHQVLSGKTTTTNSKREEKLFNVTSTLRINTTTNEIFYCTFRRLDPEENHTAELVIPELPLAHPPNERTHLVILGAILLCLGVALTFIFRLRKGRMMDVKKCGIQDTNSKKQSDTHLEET
# [2] = target: B1; assay: flow cytometry on CHO cells expressing murine B7-4
# [3] = target: T1, soluble form of human B7-1; assay: BIACORE, human PD-1.Ig immobilized
# [4] = target: T2, soluble form of human B7-2; assay: BIACORE, human PD-1.Ig immobilized
# [5] = target: T4, human CTLA4-Fc (human Ig gamma 1) (human, UniProt P16410 37-161; P01857 fragment = IgG part); assay: flow cytometry on CHO cells expressing murine B7-4
# T4 construct: also called CTLA4-Ig; hCTLA4
Binder,binding result [1],binding result [2],binding result [3],binding result [4],binding result [5]
"human PD-1.Ig (Ig portion not stated in the experiment) (Fc fusion, Probably the same as m1 or m2; also called hPD-1.Fc; PD-1.Fc; not shown: Ig/Fc portion) not shown",binds,binds,no binding,no binding,–
B1,–,–,–,–,no binding
